Reference: the antibiotic and cytotoxicity screens of Wong et al. (2023)
Some of the results follow.

How the values were obtained:
[1] = test system: HSkMC (human skeletal muscle cells); experiment: cytotoxicity call (relative viability < 0.9); details: 10 µM
[2] = test system: HepG2; experiment: cytotoxicity call (relative viability < 0.9); details: 10 µM
[3] = test system: S. aureus RN4220; experiment: growth inhibition call (relative growth <= 0.2); details: 50 µM

SMILES | cytotoxicity call [1] | cytotoxicity call [2] | growth inhibition call [3]
C[C@H](N)C(=O)N1CCc2ccccc2C1 | inactive | inactive | inactive
C[C@@H]1CCCCO[C@@H](CN(C)C(=O)Nc2ccc3c(c2)OCO3)[C@@H](C)CN([C@@H](C)CO)C(=O)c2cc(NC(=O)NC3CCCCC3)ccc2O1 | inactive | inactive | inactive
Cc1noc(C)c1S(=O)(=O)Nc1cccc2c1O[C@H](CN(C)S(=O)(=O)c1cccs1)[C@H](C)CN([C@@H](C)CO)C2=O | inactive | inactive | inactive
COc1ccc(S(=O)(=O)Nc2ccc3c(c2)C(=O)N([C@H](C)CO)C[C@@H](C)[C@H](CN(C)S(C)(=O)=O)OCCCC[C@@H](C)O3)cc1 | inactive | inactive | inactive
C[C@@H]1CN([C@@H](C)CO)C(=O)c2cc(NC(=O)CCCN(C)C)ccc2O[C@@H]1CN(C)C(=O)Nc1ccc2c(c1)OCO2 | inactive | inactive | inactive
Cc1noc(C)c1S(=O)(=O)N(C)C[C@H]1Oc2ccc(NS(=O)(=O)c3ccccc3)cc2C(=O)N([C@@H](C)CO)C[C@H]1C | inactive | inactive | inactive
Cc1noc(C)c1NC(=O)Nc1ccc2c(c1)C(=O)N([C@@H](C)CO)C[C@H](C)[C@@H](CN(C)Cc1ccc(C(=O)Nc3ccccc3N)cc1)O2 | inactive | inactive | inactive
C[C@@H]1CN([C@H](C)CO)C(=O)c2cc(NS(=O)(=O)c3cn(C)cn3)ccc2O[C@@H]1CN(C)CC1CC1 | inactive | inactive | inactive
O=C(C[C@@H]1CC[C@@H](NC(=O)Nc2ccc3c(c2)OCO3)[C@H](CO)O1)NCCCN1CCOCC1 | inactive | inactive | inactive
CCCNC(=O)N(C)C[C@@H]1Oc2cc(C#Cc3cccc(F)c3)ccc2S(=O)(=O)N([C@H](C)CO)C[C@H]1C | inactive | inactive | inactive
Cc1noc(C)c1NC(=O)Nc1ccc2c(c1)C(=O)N([C@@H](C)CO)C[C@H](C)[C@@H](CN(C)C(=O)Nc1ccc(C(F)(F)F)cc1)OCCCC[C@H](C)O2 | inactive | inactive | inactive
CCO[C@H]1OC(C(=O)N2CCN(Cc3ccc4c(c3)OCO4)CC2)=C[C@@H](c2ccc3c(c2)OCO3)[C@@H]1CCCO | inactive | inactive | inactive
C=CC[C@@H](CC(=O)NCCO)C(=O)N[C@H](COC(=O)[C@@H](CC=C)CC(=O)OC(C)(C)C)Cc1ccccc1 | inactive | inactive | inactive
Cc1sc(N)nc1-c1ccccc1 | inactive | inactive | inactive
CO[C@H]1/C=C\O[C@@]2(C)Oc3c(C)c(O)c4c(O)c(c(/C=N/N=C/N5CCCCC5)c(O)c4c3C2=O)NC(=O)/C(C)=C\C=C/[C@H](C)[C@H](O)[C@@H](C)[C@@H](O)[C@@H](C)[C@H](OC(C)=O)[C@@H]1C | active | inactive | active
Cc1noc(C)c1S(=O)(=O)N(C)C[C@H]1Oc2ccc(N(C)C)cc2CC(=O)N([C@H](C)CO)C[C@@H]1C | inactive | inactive | inactive
COCC#Cc1ccc2c(c1)O[C@H](CN(C)C(=O)CN(C)C)[C@@H](C)CN([C@H](C)CO)S2(=O)=O | inactive | inactive | inactive
C[C@@H]1CN([C@H](C)CO)C(=O)c2cccc(NC(=O)Nc3ccc(F)cc3)c2O[C@H]1CN(C)Cc1ccc(C(=O)Nc2ccccc2N)cc1 | inactive | inactive | inactive
C[C@H](O)C#Cc1ccc2c(c1)O[C@H](CN(C)C(=O)Cc1ccccn1)[C@@H](C)CN([C@@H](C)CO)S2(=O)=O | inactive | inactive | inactive
O=C(C[C@H]1CC[C@@H](NC(=O)Nc2ccc3c(c2)OCO3)[C@@H](CO)O1)NCCCN1CCOCC1 | inactive | inactive | inactive
C[C@@H]1CCCCO[C@@H](CN(C)C(=O)c2ccccc2)[C@@H](C)CN([C@H](C)CO)C(=O)c2cc(NC(=O)CCC(F)(F)F)ccc2O1 | inactive | inactive | inactive
C[C@H](CO)N1C[C@H](C)[C@@H](CN(C)S(=O)(=O)c2cn(C)cn2)Oc2ccc(NC(=O)C3CCCCC3)cc2CC1=O | inactive | inactive | inactive
C=C(C)C1CC=C(CO)CC1 (stereo not given) | inactive | inactive | inactive
CC[C@@H](C)C(=O)O[C@H]1[C@H](OC(=O)CC(C)C)O[C@H](CO)[C@@H](O)[C@@H]1O | inactive | inactive | inactive
NCCn1ncccc1=O | inactive | inactive | inactive
